# From PubChem BioAssay AID686979 (National Center for Advancing Translational Sciences (NCATS), 2013)
# Among all 420,000 compounds or so, about 50,000 (12%) were called active. Inconclusive means that the source gave no clear call. Such entries were picked first, then a sample of the others. Calls come from the whole dose curve; as a rule, active = well fitted inhibition curve with a large enough effect; inconclusive = small, poorly fitted or top-dose-only effect; inactive = flat fitted curve, though single readings scatter. No potency is given beside an inconclusive call; the fits are too rough.
# Experiment: qHTS for Inhibitors of human tyrosyl-DNA phosphodiesterase 1 (TDP1): qHTS in cells in presence of CPT; note: nearly all actives have a fitted effect of over 55% in size
# Settings: chicken DT40 Tdp1-/-;hTDP1 cells + 20 nM CPT, ATP luminescence, 48 h; activity change, negative = growth inhibition: at 46.2 µM (top of the series)
# Outline: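 Cell growth measured by CellTiter-Glo luminescence after a minimum 48 h, 37 C compound exposure with 20 nM CPT in Tdp1-knockout DT40 cells stably expressing hTDP1, seeded 400/well; qHTS titration format.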
# % is set by controls: 0 for no effect and ±100 for the full control effect; potency is the fitted concentration of half-maximal effect; tags give direction and shape of the fitted curve.
SMILES,Potency,"activity change, negative = growth inhibition"
O=C(Cc1ccc(OCCC2CCCCC2)cc1)NO,active: 7.08 µM,–
COC(=O)[C@]12CCCCC=C1N(CCC1=CCCCC1)C(=O)[C@H](CC(=O)NCCCN1CCCC1=O)C2,"inconclusive [inhibitor, single point]",–
COc1ccc(CNC(=O)C2CCN(C(=O)N3CC(C)Oc4ccc(C)cc43)CC2)cc1 (stereo unspecified),"inconclusive [inhibitor, single point]",–
COc1cccc(CNC(=O)CN2C(=O)COc3ccc(S(=O)(=O)Nc4ccccc4)cc32)c1,"inconclusive [inhibitor, partial curve, poor fit]",–
O=C1OC(c2ccc(F)cc2)=N/C1=C\c1ccc(Br)o1,"inconclusive [inhibitor, single point]",–
O=C(CCS(=O)(=O)c1cc(Br)cc2c1N(C(=O)C1CC1)CC2)Nc1ccc(C(F)(F)F)cc1,–,inactive: -13.6%
O=C(NC1CCCC1)C1C2C=CC(C2)C1C(=O)N1CCOCC1 (stereo unspecified),–,inactive: 2.05%
CCOc1ccc(Cl)cc1CNCCNCC(C)O (stereo unspecified),–,inactive: -31%
COc1ccc(-c2nc(Cn3c(SCc4ccccc4F)nc4ccncc43)c(C)o2)cc1OC,active: 18.4 µM,–
CCOc1cc(CNC2CCCC2)cc(Cl)c1OCc1ccccc1,"inconclusive [inhibitor, single point]",–
CCOC(=O)C1CC(c2ccccc2)=NN1c1ccccc1 (stereo unspecified),"inconclusive [inhibitor, single point]",–
COc1ccc(S(=O)(=O)N2CCN=C2SCc2cccc(F)c2)cc1,–,inconclusive: -36.4% [inhibitor]
Cc1nn(C)c(C)c1NC(=O)c1ccccc1NC(=O)Nc1ccccc1,–,inactive: 9.86%
O=C(c1cccs1)N1N=C(c2ccccc2)CC1c1ccccc1 (stereo unspecified),"inconclusive [inhibitor, single point]",–
Cc1cc2ccccc2n2c(SCC(=O)N3CCc4ccccc4C3)nnc12,"inconclusive [inhibitor, single point]",–
ON=Cc1ccnc2ccccc12,–,inactive: -22.7%
O=C1NC[C@@H](CCCCN2C[C@H](Cc3ccccc3)N(Cc3ccccc3)C(=O)C2=O)N(Cc2ccccc2)C1=O,–,inactive: -7.76%
COc1cc(OC)cc(-c2nnc(SCC(=O)NCc3cccs3)o2)c1,–,inactive: -3.19%
O=C(O)c1ccc(/C=N/Nc2ccc(C(F)(F)F)cn2)cc1,"inconclusive [inhibitor, single point]",–
O=C(Nc1ccc2c(c1)OCO2)c1cccc(F)c1,–,inactive: -8.93%
O=C(CSc1cn(CCNC(=O)c2ccc3ccccc3c2)c2ccccc12)NCc1ccco1,active: 16.4 µM,–
COc1cc(NC(=O)COC(=O)c2cnccn2)c(C)cc1[N+](=O)[O-],–,inactive: 3.07%
CC1(C(=O)Nc2cccc3cccnc23)CCN1C(=O)Cc1ccc(Cl)cc1Cl (stereo unspecified),active: 20.6 µM,–
CCOC(=O)C1CCCN(Cc2nc(N)nc(Nc3ccc(OC)cc3)n2)C1 (stereo unspecified),active: 29.1 µM,–
COc1ccc(C2C(C(=O)NCC3CCCO3)c3cc(OC)c(OC)cc3C(=O)N2C)cc1OC (stereo unspecified),–,inactive: 6.42%
OC(Cc1cccc(C=NN2CCOCC2)n1)(C(F)(F)F)C(F)(F)F,–,inactive: 5.47%

SMILES,Potency,"activity change, negative = growth inhibition"
CC1CCCCN1c1cc(C#N)c(C#N)cc1[N+](=O)[O-] (stereo unspecified),active: 18.4 µM,–
N#C/C(=C\c1cc(Cl)cc(Cl)c1)c1cccnc1,inactive,–
O=C(O)c1ccc(/C=N/Nc2ccc(Cl)nn2)cc1,"inconclusive [inhibitor, partial curve]",–
CC(=O)N1CC(C)Sc2ccc(S(=O)(=O)N3CCCCC3)cc21 (stereo unspecified),"inconclusive [inhibitor, single point]",–
OC(c1cccnc1)c1ccc2c(c1)CN(Cc1cn(-c3ccccc3)nc1-c1ccccc1)CCO2 (stereo unspecified),–,inactive: -9.36% [at 9.04 µM]
CS(=O)(=O)c1ccc(-c2csc(C(O)c3cccc(Cl)c3)n2)cc1 (stereo unspecified),"inconclusive [inhibitor, single point]",–
COCCn1c(SCC(=O)Nc2ccc(F)cc2F)nc2c(c1=O)SCC2,–,inactive: -8.27%
CCOC(=O)COc1ccc(Br)cc1/C=C\c1[nH]c(=O)[nH]c(=O)c1[N+](=O)[O-],active: 23.1 µM,–
CSc1ccccc1C(=O)NCc1ccc(C)cc1,–,inactive: 2.39%
COc1ccc(N2C[C@H](Cc3ccccc3)[C@@H](CC(=O)Nc3ccccc3)C2=O)cc1,"inconclusive [inhibitor, single point]",–
O=C(Nc1c(Br)cc2c(c1Br)Cc1cc([N+](=O)[O-])ccc1-2)C(Cl)Cl,"inconclusive [inhibitor, single point]",–
CC(C)c1ccc(NC(=O)N2CCc3ccccc3C2)cc1,"inconclusive [inhibitor, single point]",–
COc1ccc(C2C(C#N)=C(N)Oc3cc(C)n(Cc4ccco4)c(=O)c32)cc1 (stereo unspecified),–,inactive: -5.9%
Cc1cc(C)n(CCc2nc(-c3ccc(C)o3)cs2)n1,"inconclusive [inhibitor, single point]",–
O=C(Cn1c(=O)n(-c2ccc(Cl)cc2)c(=O)c2oc3ccccc3c21)Nc1ccccc1,"inconclusive [inhibitor, single point]",–
COc1ccccc1CCNC(=O)c1ccc(NC(=O)CC2SC(N3CCCCC3)=NC2=O)cc1 (stereo unspecified),–,inactive: -18.3%
CO/N=C(/c1nonc1N)N1CCN(c2ccc([N+](=O)[O-])cc2)CC1,"inconclusive [inhibitor, single point]",–
Fc1cc(Br)ccc1NC(=S)Nc1ccccc1,–,inactive: -8.36%
Nc1ccccc1C(=O)N1O[C@@H]2C=C[C@H]1C2,"inconclusive [inhibitor, single point]",–
COc1ccc(OCCCC(=O)Nc2ccc3c(c2)OCCO3)cc1,"inconclusive [inhibitor, single point]",–
O=C(Oc1coc(CSc2ncccn2)cc1=O)c1cccs1,–,inactive: 19.6%
O=C(c1cccc(F)c1)N1CCC2(CCN(Cc3cc(C(F)(F)F)cc(C(F)(F)F)c3)CC2)CC1,"inconclusive [inhibitor, single point]",–
NC(=O)C1(Nc2ccc(Br)cc2)CCCC1,–,inactive: 3.69%
COc1ccc(OC)c(C(=O)CN2CCN(S(=O)(=O)c3ccc(Br)cc3)CC2)c1,–,inactive: -11.5%
CC(O)[C@H]1CC[C@H]2[C@@H]3CC[C@H]4C[C@@H](O)CC[C@]4(C)[C@H]3C(=O)C[C@]12C (stereo partly specified),"inconclusive [inhibitor, partial curve, poor fit]",–
Cc1cc2c(cc1C)-n1nnnc1C(N1CCN(C(=O)OCc3ccccc3)CC1)C(=O)N2 (stereo unspecified),active: 6.51 µM,–

SMILES,Potency,"activity change, negative = growth inhibition"
Cn1cnc(S(=O)(=O)N2CCC(C(=O)NCc3ccc(F)cc3)CC2)c1,–,inactive: 3.64%
O=C(Cc1ccc(Cl)cc1)NCC(c1cccs1)S(=O)(=O)c1ccc(F)cc1 (stereo unspecified),"inconclusive [inhibitor, single point]",–
O=C(c1ccc2c(c1)OCO2)N(CC1CCCO1)C1(C(=O)NC2CCCCC2)CCCCC1 (stereo unspecified),"inconclusive [inhibitor, partial curve]",–
CN(Cc1ccccc1)C(=O)C1CCN(S(=O)(=O)c2cccc3nsnc23)CC1,"inconclusive [inhibitor, single point]",–
O=C(c1cccc(F)c1)N1CCC2(CC1)CCN(c1ccc(-c3ccccc3)cc1)CC2,–,inactive: 8.97%
COc1cccc(C(=O)Nc2ccccc2-c2nnc(-c3cc(OC)ccc3Br)o2)c1,"inconclusive [inhibitor, single point]",–
O=c1c(C=NCc2cccnc2)c(C(F)(F)F)[nH]n1-c1nc2ccccc2s1,–,inactive: -6.65%
O=C(NCc1ccccc1Cl)C1CCN(S(=O)(=O)c2ccc(F)cc2)CC1,–,inactive: -17.5%
Cc1ccccc1CNC(=O)Cn1ccc2cc(S(=O)(=O)N3CCCCCC3)ccc21,"inconclusive [inhibitor, single point]",–
COc1ccc(C(=O)Nc2ccccc2C(=O)Nc2ccncc2)cc1,"inconclusive [inhibitor, partial curve]",–
Cc1cccc(N2CCN(CCCNC(=O)c3nnc(Cc4c(F)cccc4Cl)o3)CC2C)c1 (stereo unspecified),active: 23.1 µM,–
CC1CC(C)CN(C(=O)c2cccc(S(=O)(=O)N(C)c3ccccc3)c2)C1 (stereo unspecified),active: 8.2 µM,–
COc1ccc(Cl)c(NC(=O)Cn2nnc(-c3ccccc3N)n2)c1,–,inactive: -22.9%
CCCSS/C(CCO)=C(\C)N(C=O)Cc1cnc(C)nc1N,active: 5.31 µM,–
O=c1cc(-c2ccsc2)oc2cc(-c3ccc4c(c3)OCO4)ccc12,active: 18.4 µM,–
Cc1cc(C)c2oc(C(=O)N(Cc3cccs3)C3CCS(=O)(=O)C3)cc(=O)c2c1 (stereo unspecified),"inconclusive [inhibitor, single point]",–
CC(C)CN(C(=O)COC(=O)c1ccccc1NCc1ccco1)c1c(N)n(Cc2ccccc2)c(=O)[nH]c1=O,"inconclusive [inhibitor, single point]",–
Cc1ccc(S(=O)(=O)C(C#N)c2nc3ccccc3nc2N2CCN(C)CC2)cc1 (stereo unspecified),–,inactive: 1%
CSCCC(C)N1CCC(Oc2ccc(C(=O)NCc3ccccn3)cc2)CC1 (stereo unspecified),–,inactive: -19.9%
COCCCN1C(=O)c2ccc(C(=O)N3CCN(c4ccc(OC)cc4)CC3)cc2C1=O,–,inactive: -5.59%
Cc1nn(Cc2ccccc2Cl)c(Cl)c1/C=C/C(=O)OCC(=O)NC(N)=O,"inconclusive [inhibitor, single point]",–
COc1ccc(CNC(=O)c2c[nH]c3ccccc3c2=O)cc1,–,inactive: 0.209%
CCCc1nc2ccc(Cl)cn2c1Cc1ccccc1OC,active: 7.31 µM,–
COc1ccc(-n2cccc2C=O)cc1,–,inconclusive: -30.7% [inhibitor]
